# Assay results taken from the supplement of paper PMC4166925.
# ± gives the standard deviation of the averaged measurements. Over roughly 33,000 sequences, “E-score (dimensionless, -0.5 to 0.5)” has its median near -0.046; the highest 2% begin near 0.36. The list shows a part of the results.
# Tested on: T1, SpTbr T-box DNA-binding domain (GST fusion)
# T1 sequence: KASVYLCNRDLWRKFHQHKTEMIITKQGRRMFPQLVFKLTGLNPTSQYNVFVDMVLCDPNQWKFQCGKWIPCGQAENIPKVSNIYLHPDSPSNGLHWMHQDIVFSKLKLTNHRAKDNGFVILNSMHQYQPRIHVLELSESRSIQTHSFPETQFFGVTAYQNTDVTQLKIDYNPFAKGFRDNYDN
# Assay: PBM E-score of 8-mer (E-score (dimensionless, -0.5 to 0.5)); Tbr is Tbrain of the sea star Patiria miniata (Pm) or the sea urchin Strongylocentrotus purpuratus (Sp); higher = stronger binding preference; most listed sequences are background and not binding sites
# Conditions: the construct has about 5 more residues each side
# In short: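 Primer extension turned Universal Agilent oligonucleotide arrays double-stranded. They were incubated with 200 nM protein in PBS (pH 7.5); the protein was a GST-fused Tbr T-box DNA-binding domain expressed in BL21 E. coli at 20 °C and purified on glutathione. Every ungapped 8-mer was scored from the scanned, quantified probe intensities, and the Universal PBM Analysis Suite gave each an enrichment E-score averaged over duplicate arrays.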
row,Sequence,PBM E-score of 8-mer
1,CGTGCCCA,-0.0949 ± 0.11
2,AGCCCATC,-0.334 ± 0.032
3,ACGACACT,0.257 ± 0.0054
4,ACAGTCGC,0.205 ± 0.013
5,CCACTCTC,-0.0486 ± 0.035
6,CCGACCAA,-0.0681 ± 0.008
7,GGGCAGCA,0.0443 ± 0.021
8,AGGCTCGA,-0.0409 ± 0.026
9,GCAAGACA,0.054 ± 0.0058
10,GTTAATAA,0.0847 ± 0.12
11,CTGTCGAC,0.238 ± 0.062
12,CCACGGCG,0.065 ± 0.04
13,TGGCCCAA,-0.205 ± 0.024
14,ACGAGTGG,0.126 ± 0.025
15,AGTGATTG,0.0625 ± 0.081
16,CCGGTGGA,-0.211 ± 0.017
17,ATTCTAGA,-0.196 ± 0.077
18,ACGTCGTA,0.00267 ± 0.049
19,AAGGTAGG,-0.118 ± 0.012
20,GAGGAAAA,-0.142 ± 0.043
21,CGATCATA,-0.121 ± 0.017
22,AACGGTCT,-0.181 ± 0.035
23,AAACACTG,0.031 ± 0.0022
24,CAGGTCAA,-0.18 ± 0.073
25,GGACGCCC,-0.242 ± 0.01

row,Sequence,PBM E-score of 8-mer
1,TGGTGAAA,0.0283 ± 0.014
2,CCAGGTCG,0.054 ± 0.0014
3,TAAAACCA,-0.0507 ± 0.099
4,ATCTGCGC,-0.055 ± 0.014
5,ACGCGCTA,0.315 ± 0.0089
6,GCATGCAA,-0.000435 ± 0.026
7,CAGGCAAG,-0.06 ± 0.0088
8,CTGCAGCA,0.039 ± 0.046
9,CGCCGCCC,-0.0882 ± 0.041
10,CTTCAGTA,0.0172 ± 0.023
11,ATCCCACA,0.243 ± 0.0088
12,ACGGGGTC,-0.0596 ± 0.061
13,ATTCAGCC,-0.133 ± 0.0052
14,ACGGCGCA,-0.00177 ± 0.0056
15,CGAAAGAC,-0.0164 ± 0.091
16,GGTGTAAC,0.349 ± 0.014
17,CATTAGTC,-0.222 ± 0.11
18,ACCGTTGG,0.127 ± 0.053
19,ACATGAGG,-0.0182 ± 0.074
20,CTTTTACA,0.218 ± 0.041
21,GCAGGCCA,-0.227 ± 0.022
22,GAATATGA,-0.0965 ± 0.0023
23,AGGGTCTA,-0.0468 ± 0.13
24,GAAAGAGC,-0.0245 ± 0.041
25,CCCAAACG,-0.126 ± 0.0051

row,Sequence,PBM E-score of 8-mer
1,ATGCACGG,-0.231 ± 0.075
2,CCCACGGC,0.0553 ± 0.013
3,CGCTTCAG,-0.0504 ± 0.046
4,GCACCTCA,0.343 ± 0.02
5,CATCTTAA,-0.00458 ± 0.041
6,CGAGGTAG,-0.0907 ± 0.021
7,AACCTGAG,0.102 ± 0.046
8,CTCAACGC,0.142 ± 0.05
9,AAATGACG,0.0876 ± 0.029
10,ACAACCCA,0.052 ± 0.063
11,AGTGCATC,-0.167 ± 0.041
12,AAGGGAGG,-0.321 ± 0.021
13,AAGGCGGA,4e-05 ± 0.05
14,CGTCGACG,0.0187 ± 0.13
15,GTAGTTGA,0.0599 ± 0.0024
16,CATGCGGA,-0.0716 ± 0.037
17,CCAGGATA,-0.078 ± 0.074
18,AGTGCACC,-0.0193 ± 0.035
19,ACACACAG,0.3018 ± 0.0005
20,ACGTTATA,-0.0104 ± 0.028
21,ATGATGAG,-0.197 ± 0.017
22,CGCACCCA,0.372 ± 0.029
23,CAGCACGC,0.158 ± 0.014
24,GTCTACTA,-0.128 ± 0.044
25,ACAACGGC,0.109 ± 0.046

row,Sequence,PBM E-score of 8-mer
1,ATACAATA,-0.241 ± 0.059
2,ACCCTCGC,0.147 ± 0.034
3,CATGAGAG,-0.11 ± 0.025
4,AGGCGTTG,0.355 ± 0.0053
5,ACACCTCC,0.4854 ± 0.0043
6,GTGGATCA,-0.0261 ± 0.024
7,ACCAATCT,-0.217 ± 0.035
8,CTGATGAC,0.148 ± 0.0058
9,GCGGATGA,0.0166 ± 0.08
10,AACCTCCC,-0.0867 ± 0.0052
11,CGGTGATA,0.111 ± 0.0075
12,GGAATTTA,-0.0269 ± 0.075
13,AAGCAACT,-0.143 ± 0.087
14,CTATCGCC,0.158 ± 0.0067
15,CAGATTCC,-0.0334 ± 0.019
16,CGCTAATC,0.101 ± 0.022
17,CCGTTAGC,0.302 ± 0.01
18,AAAAAACG,-0.0376 ± 0.032
19,AAATCGTG,0.159 ± 0.0075
20,TACCGCGA,0.0812 ± 0.035
21,GTGAAAGA,0.274 ± 0.029
22,AGTAGTTG,0.0394 ± 0.029
23,CTGACCTC,-0.0999 ± 0.046
24,ATCAGAAG,-0.0682 ± 0.087
25,AGGCAGCG,-0.104 ± 0.026

row,Sequence,PBM E-score of 8-mer
1,CACCTCAC,0.444 ± 0.012
2,CTTGTATC,-0.07 ± 0.021
3,GCCGGACC,-0.135 ± 0.018
4,GATGTCCA,-0.22 ± 0.056
5,TGAGTGAA,-0.0573 ± 0.0023
6,GTAGGGCA,-0.357 ± 0.035
7,ATCCCTTG,0.00199 ± 0.065
8,CAAGGAAG,-0.242 ± 0.021
9,GAGATACC,0.0112 ± 0.035
10,AGAGGGGC,-0.283 ± 0.029
11,GCTGTAAC,-0.0609 ± 0.029
12,AATCACCC,0.1118 ± 0.00022
13,AAAGATAC,-0.167 ± 0.028
14,ACCGCCTC,-0.141 ± 0.094
15,AAGGCAAC,0.0355 ± 0.038
16,ACGGGACA,-0.0441 ± 0.016
17,CAGATTTA,-0.287 ± 0.035
18,AAGGTCGC,0.184 ± 0.011
19,ACAGATCT,-0.0769 ± 0.007
20,CTATTCAG,-0.128 ± 0.026
21,AATTGAGG,-0.138 ± 0.018
22,AAGATCCT,-0.191 ± 0.043
23,GCCCAAGA,-0.219 ± 0.088
24,ATATATCA,-0.104 ± 0.047
25,GTGCATAA,-0.0784 ± 0.018

row,Sequence,PBM E-score of 8-mer
1,GTGGTCCA,-0.184 ± 0.014
2,ACCAAACT,-0.131 ± 0.038
3,ACCATGAA,-0.0545 ± 0.054
4,AGTTGGCC,-0.112 ± 0.0038
5,GCTTCCAC,0.0999 ± 0.075
6,ATGCCAGA,-0.1829 ± 0.0011
7,CGGGCGCC,-0.13 ± 0.027
8,ATTAGATG,-0.199 ± 0.052
9,CATTCAAC,-0.212 ± 0.042
10,TAAGGGAA,-0.28 ± 0.032
11,CATCCGGC,-0.0875 ± 0.055
12,TTAAAGAA,-0.0841 ± 0.01
13,CGTTATAC,-0.0795 ± 0.028
14,CCTCGGCC,-0.158 ± 0.034
15,ACACCCAC,0.3288 ± 0.0018
16,CAAATAAG,-0.0181 ± 0.034
17,AGTAACTA,-0.131 ± 0.019
18,TCACTAGA,0.112 ± 0.0083
19,CTTAGTCC,-0.17 ± 0.016
20,CGTGTGGA,0.306 ± 0.0073
21,TAGCCGAA,-0.1327 ± 0.0011
22,TACCGCTA,0.0813 ± 0.0076
23,AGAACCGC,0.134 ± 0.006
24,AGACACTC,0.129 ± 0.029
25,CAGTAATG,0.0486 ± 0.063

row,Sequence,PBM E-score of 8-mer
1,ATACTCTA,-0.117 ± 0.035
2,GTCGCCGA,-0.058 ± 0.026
3,AACCCGTC,0.12 ± 0.047
4,GCAGTAAC,0.0299 ± 0.013
5,ACTTCAAC,0.105 ± 0.043
6,GAGACACA,0.15 ± 0.01
7,AAAAACTA,-0.0466 ± 0.032
8,CAAAATAG,-0.146 ± 0.0023
9,AGCGACAG,0.24 ± 0.0054
10,AGCATGGA,-0.0258 ± 0.071
11,CATCAAGA,-0.248 ± 0.021
12,AACGTAAC,-0.188 ± 0.046
13,AAAAGTCT,-0.134 ± 0.052
14,TGAATACA,-0.177 ± 0.01
15,AAGTCGTA,-0.155 ± 0.058
16,ATATATCG,-0.0542 ± 0.011
17,ACTCCCTG,-0.113 ± 0.038
18,GGGGGCAA,-0.0481 ± 0.018
19,CAGACCTC,-0.15 ± 0.075
20,CAGGGCAA,-0.237 ± 0.011
21,AGTCAACA,0.268 ± 0.036
22,GTACAATA,-0.338 ± 0.055
